The structures appear in SMILES notation. Screen size: about 310,000 compounds; about 2,200 (0.71%) showed an effect of 50% or more. Effects have a minus sign here. The list shows a part of the results.

This note sets out measurements from paper PMC4336329 (PLoS ONE, 2015).

This experiment deals with human ether-à-go-go-related gene (hERG) potassium channel (human, UniProt Q12809). The experiment is described as follows: primary screen, population patch clamp on CHO cells stably expressing hERG.
Sequence of human ether-à-go-go-related gene (hERG) potassium channel (Q12809 whole entry, looked up): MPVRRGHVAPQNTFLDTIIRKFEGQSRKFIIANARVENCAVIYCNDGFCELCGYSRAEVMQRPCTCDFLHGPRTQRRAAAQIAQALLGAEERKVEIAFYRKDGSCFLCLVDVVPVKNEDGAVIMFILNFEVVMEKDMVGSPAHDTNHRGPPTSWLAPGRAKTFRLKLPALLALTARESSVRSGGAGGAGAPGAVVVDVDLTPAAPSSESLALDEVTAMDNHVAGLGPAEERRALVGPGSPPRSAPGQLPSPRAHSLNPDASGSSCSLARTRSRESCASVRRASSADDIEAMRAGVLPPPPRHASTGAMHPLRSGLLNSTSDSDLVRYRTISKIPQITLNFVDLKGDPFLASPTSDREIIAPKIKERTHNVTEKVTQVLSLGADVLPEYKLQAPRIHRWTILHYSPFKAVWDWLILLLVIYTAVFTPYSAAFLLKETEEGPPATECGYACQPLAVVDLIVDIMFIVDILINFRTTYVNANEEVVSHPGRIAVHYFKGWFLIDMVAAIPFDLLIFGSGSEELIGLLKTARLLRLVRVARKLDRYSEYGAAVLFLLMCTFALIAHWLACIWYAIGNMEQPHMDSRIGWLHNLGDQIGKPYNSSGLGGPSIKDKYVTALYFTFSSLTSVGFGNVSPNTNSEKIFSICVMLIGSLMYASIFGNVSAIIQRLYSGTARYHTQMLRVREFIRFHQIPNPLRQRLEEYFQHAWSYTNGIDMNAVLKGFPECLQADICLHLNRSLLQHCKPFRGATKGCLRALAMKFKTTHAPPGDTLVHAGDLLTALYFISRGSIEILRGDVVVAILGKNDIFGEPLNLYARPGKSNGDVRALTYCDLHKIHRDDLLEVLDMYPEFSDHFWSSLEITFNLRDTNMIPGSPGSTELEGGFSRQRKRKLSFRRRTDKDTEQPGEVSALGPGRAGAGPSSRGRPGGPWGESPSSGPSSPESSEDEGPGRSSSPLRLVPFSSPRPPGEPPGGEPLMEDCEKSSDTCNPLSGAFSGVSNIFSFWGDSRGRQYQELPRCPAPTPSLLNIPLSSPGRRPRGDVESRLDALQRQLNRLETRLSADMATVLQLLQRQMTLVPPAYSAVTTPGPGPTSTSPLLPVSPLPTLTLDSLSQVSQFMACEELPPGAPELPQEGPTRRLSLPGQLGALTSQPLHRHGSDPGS
Take `Cc1ccc(NC(=O)CCC(=O)NNC(=O)COc2cccc3ccccc23)c(C)c1`: the “hERG current change (%, negative = inhibition) at 1uM” value came out at 4.07%. In the case of `CCn1c(SCC(=O)NCc2cccs2)nnc1-c1ccncc1`, the “hERG current change (%, negative = inhibition) at 1uM” value is recorded as 18.9%. For `COc1ccc(C(=O)NCC(c2ccco2)N2CCc3ccccc3C2)cc1` (centres unmarked), the “hERG current change (%, negative = inhibition) at 1uM” value stood at 4.84%. To `O=C(Nc1ccc(C(=O)O)cc1)/C(=C\C=C\c1ccccc1)NC(=O)c1ccccc1Cl` belongs 2.62%; to `CC1(C(=O)N2CC3(CC(c4cccc(NC(=O)COc5ccc(Cl)cc5)c4)=NO3)C[C@@H]2C(N)=O)CC1` (some centres unmarked), 14.3%. To `CCOC(=O)c1c(NC(=O)COc2ccccc2C#N)sc2c1CC(C)(C)NC2(C)C` belongs 11.1%. `CC(=O)NC(=S)Nc1ccc2oc(-c3cc(F)c(F)cc3Cl)nc2c1`: the “hERG current change (%, negative = inhibition) at 1uM” value is listed as 10.6%. Take `C/C=C/c1ccc(Oc2nnnn2-c2ccc(C(N)=O)cc2)c(OC)c1`: the “hERG current change (%, negative = inhibition) at 1uM” value is on record as 14.2%. Take `O=C(NN=C1CCCC1)c1ccccc1O`: the “hERG current change (%, negative = inhibition) at 1uM” value is 16.1%. For the molecule `Cc1cc(C)c(C#N)c(Nc2ccccc2Cl)n1`, the “hERG current change (%, negative = inhibition) at 1uM” value worked out at 18.2%. As for `O=C(NCC(c1cccnc1)N1CCOCC1)c1ccco1` (centres unmarked), the “hERG current change (%, negative = inhibition) at 1uM” value stood at 15%.

Turning to `O=C(Cn1nc(-c2cccc(Cl)c2)ccc1=O)Nc1cccnc1`, the “hERG current change (%, negative = inhibition) at 1uM” value turned out to be 8.72%. Turning to `CCOc1ccc(C(=O)COc2ccc(NC(C)=O)cc2)cc1`, the “hERG current change (%, negative = inhibition) at 1uM” value is given as 18.2%. Regarding `CCOC(=O)c1c(C)[nH]c(C)c1C(=O)COC(=O)c1ccccc1O`, the “hERG current change (%, negative = inhibition) at 1uM” value is 1.53%.

As to `O=C(CCn1c(=S)oc2ccccc21)NCCC1=CCCCC1`, the “hERG current change (%, negative = inhibition) at 1uM” value came to 7.57%. Consider `O=S(=O)(NCc1ccccc1)c1ccc(S(=O)(=O)N(Cc2ccccn2)Cc2ccco2)cc1`, for which the “hERG current change (%, negative = inhibition) at 1uM” value came out at 23.9%. `CCOC(=O)Cc1csc(NS(=O)(=O)c2ccc(Br)cc2)n1`: the “hERG current change (%, negative = inhibition) at 1uM” value was 8.87%. As for `Cc1cc(C)c2c(-n3cccc3)c(C(=O)NNS(=O)(=O)c3ccccc3)sc2n1`, the “hERG current change (%, negative = inhibition) at 1uM” value is given as 11.1%. The result for `COCCCNC(=S)NNC(=S)Nc1ccc(OC)cc1` reads 12.3%; that for `CCOc1ccc(NS(=O)(=O)c2ccc3[nH]cc(C(=O)NCCOC)c(=O)c3c2)cc1`, -0.613%; that for `O=C(CCn1cccn1)Nc1ccc(-c2ccno2)cc1`, 10.1%. Turning to `COc1ccc(OC)c(/C=N/Nc2nncn2/N=C/c2cc(OC)ccc2OC)c1`, the “hERG current change (%, negative = inhibition) at 1uM” value came out at 8.75%. Regarding `C=CCc1c(C)nc(C)nc1N/N=C/c1ccccc1`, the “hERG current change (%, negative = inhibition) at 1uM” value was determined as 0.814%. Regarding `COc1ccccc1Cn1c(-c2ccco2)nc2nc3ccccc3nc21`, the “hERG current change (%, negative = inhibition) at 1uM” value is -3.42%. For `Cc1ccc(S(=O)(=O)N2CCN(C(=O)Cn3c(=O)cnc4ccccc43)CC2)cc1`, the “hERG current change (%, negative = inhibition) at 1uM” value was determined as 1.04%.

As to `COc1ccc2nc(C3CCCCC3)nc(C3CCCCC3)c2c1`, the “hERG current change (%, negative = inhibition) at 1uM” value is on record as 15.2%. Regarding `CCCn1nc(NS(=O)(=O)c2ccc(F)cc2)c2cc3ccccc3nc21`, the “hERG current change (%, negative = inhibition) at 1uM” value was 12.1%. The result for `CCC1Sc2ccccc2N(CC(=O)NC2CC2)C1=O` (centres unmarked) reads 12.3%; that for `O=C(Cn1cc2c(n1)CCCCC2)N1CCc2ccccc2C1`, 0.67%; that for `Cc1sc2ncnc(N3CCC(C(=O)N(CC(C)C)c4nc5ccccc5s4)CC3)c2c1C`, 3.62%. `CCOC(=O)c1ccc(NC2c3ccccc3C(=O)N2c2ccc(C)cn2)cc1` (centres unmarked): the “hERG current change (%, negative = inhibition) at 1uM” value was determined as 11.3%. The result for `CC(=O)Nc1ccc(S(=O)(=O)NCCSCc2ccc(Cl)cc2Cl)cc1` reads 12.4%; that for `O=C(O)CCCNc1n[nH]c(=O)[nH]c1=O`, 14.1%; that for `CC(C)(C)NC(=O)C(c1cccs1)N(Cc1ccco1)C(=O)c1csnn1` (centres unmarked), 13.1%. `Brc1ccc(-c2csc(N3CCOCC3)n2)cc1`: the “hERG current change (%, negative = inhibition) at 1uM” value is listed as 13.7%. Turning to `O=c1c2cc(Br)ccc2[nH]c(=S)n1-c1ccccc1`, the “hERG current change (%, negative = inhibition) at 1uM” value is reported as 10.2%. As for `Cc1cc(CN(C)C(=O)c2cc(COc3ccc(C)c(C)c3)on2)n[nH]1`, the “hERG current change (%, negative = inhibition) at 1uM” value is given as 7.9%. `CCOP(=O)(C(NC(=O)c1ccccc1Cl)=C(Cl)Cl)c1ccccc1` (centres unmarked): the “hERG current change (%, negative = inhibition) at 1uM” value was 9.1%.

With `COc1ccc(S(=O)(=O)N[C@@H](Cc2ccc(Cl)cc2)C(=O)N2CC[C@@]3(O)CCCC[C@H]3C2)cc1`, the “hERG current change (%, negative = inhibition) at 1uM” value turned out to be 4.25%.

Take `N/C(=N\OC(=O)c1ccccc1)c1ccncc1`: the “hERG current change (%, negative = inhibition) at 1uM” value was found to be 9.66%. As for `COC(=O)C1=CNC=C(C(=O)OC)C1c1ccccc1Cl`, the “hERG current change (%, negative = inhibition) at 1uM” value stood at 14.1%. Take `CC1=CCC[C@@H]2[C@@](C)(CC/C(C)=C/C(=O)O)[C@H](C)CC[C@@]12C`: the “hERG current change (%, negative = inhibition) at 1uM” value came to 11.2%. As for `CCCCn1c(-c2cccc(Br)c2)nc2cc3[nH]c(=O)c(C(C)C)nc3cc21`, the “hERG current change (%, negative = inhibition) at 1uM” value came to 9.92%.

For the molecule `CCOC(=O)N1CCN(c2c(NCc3ccc(N(C)C)cc3)c(=O)c2=O)CC1`, the “hERG current change (%, negative = inhibition) at 1uM” value stood at 12.8%.
